# Data: PubChem BioAssay AID1963868 (Molecular Pharmacology Branch, DTP, NCI, 2024)
# For part of its entries the source gives two or more results. This is not the full list of results. The source may hold further records. Values that stand side by side are repeated measurements (runs, samples, wells, individuals or studies). Counts like (3×) count equal records among those shown.
# Tested on: KRAS PDC tumor spheroids (HUVEC+MSC), viability
# Assay: Anticancer human tumor 254851-301-R-J1-PDC patient-derived colon carcinoma cell line growth inhibition [KRAS2]
# Settings: for IC50: compound alone; for viability, T/C: stronger effect = lower value
# Source text: Multicellular complex tumor spheroid response to RAS pathway inhibitors in combination with a targeted agents in patient-derived cell lines with oncogenic KRAS variants from multiple cancer types
# A high-throughput screen of multi-cell type tumor spheroids was designed to identify active combinations of targeted small molecules and KRAS pathway inhibitors. Complex spheroids include a stromal component modeled by human endothelial cells (HUVEC) and fibroblasts modeled by human mesenchymal stem cells (MSCs). The concentration ranges selected for each drug and investigational agent were based upon clinically achievable concentrations if the clinical Cmax of the agent was known.
# Compounds. The drugs and investigational agents: BI-3406 (NSC825286), BAY-293 (NSC824723), batoprotafib (TNO155; NSC825523), sotorasib (AMG 510; NSC818433), MRTX1257 (NSC819558), elimusertib (BAY 1895344; NSC800525), molibresib (GSK525762; NSC774829), temuterkib (LY3214996; NSC803410), venetoclax (NSC766270), alisertib (NSC759677), olaparib (NSC753686), talazoparib (NSC767125), erdafitinib (NSC781556), ipatasertib (NSC767898), cabozantinib (NSC761068), nintedanib (NSC756659), abemaciclib (NSC768073), docetaxel (NSC628503), trametinib (NSC758246), and sapanisertib (NSC764658) were obtained from the National Cancer Institute (NCI) Developmental Therapeutics Program Chemical Repository. The FDA-approved anticancer drug set is available from the Developmental Therapeutics Program. […] The stock solutions were prepared in dimethyl sulfoxide (DMSO, Sigma-Aldrich, St. Louis, MO, cat. D2650) at 800-fold the tested concentration and stored at -70 degrees C prior to their use. All drugs and investigational agents were tested over a range starting from a high concentration at or near the clinical Cmax and decreasing in half-log increments. If the clinical Cmax for an agent had not been determined, the highest concentration tested was 10 microM.
# Cell Culture. All cells were maintained in an incubator at 37 degrees C and 5% CO2 with 95% humidity. The PDC lines were cultured according to standard operating procedures established by the NCI PDMR (https://pdmr.cancer.gov/sops/default.htm). Briefly, all PDCs were thawed and cultured in Matrigel-coated flasks prepared with a working solution of 1X Ham's F-12 nutrient mix, without supplementation (Invitrogen, Waltham, MA, cat. 11765054), 100 U/mL penicillin-streptomycin (Invitrogen, cat. 15140122), and 2.5% Matrigel (Corning Inc., Corning, NY, cat. 354248) for the first three passages. All PDCs were cultured in complete DMEM/F-12 media containing advanced DMEM/F-12 (Invitrogen, cat. 12634028), 4.9% defined fetal bovine serum, heat inactivated (HyClone Laboratories Inc., Logan, UT, cat. SH30070.03HI), 389 ng/mL hydrocortisone (Sigma-Aldrich, cat. H4001), 9.7 ng/mL human EGF recombinant protein (Invitrogen, cat. PHG0313), 23.4 microg/mL adenine (Sigma-Aldrich, cat. A2786), 97.3 U/mL penicillin-streptomycin (Invitrogen, cat. 15140122), 1.9 mM L-glutamine (Invitrogen, cat. 25030081), and 9.7 microM Y-27632 dihydrochloride (Tocris Bioscience, Bristol, United Kingdom, cat. 1254). The PDCs were cultured in complete DMEM/F12 media without 9.7 microM Y-27632 dihydrochloride for at least two passages prior to the screen. The established cell line HOP-62 was cultured in RPMI 1640 medium, HEPES (Invitrogen, cat. 22400105) with 10% defined fetal bovine serum (HyClone Laboratories Inc., cat. SH30070.03) and 2 mM L-glutamine (Invitrogen, cat. 25030081). The pooled donor HUVEC were cultured in endothelial cell growth medium 2 (PromoCell, Heidelberg, Germany, cat. C-22011) and the hMSC were cultured in mesenchymal stem cell growth medium 2 (PromoCell, cat. C-28009). For all experiments, HUVEC and hMSC were used at passages </=5, while the malignant cell lines were used at passages </=15. […]
# 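Also: spheroids exposed to compounds for seven days before readout.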
# 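For viability, T/C in this document: 100% = DMSO vehicle control luminescence of the spheroids.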
Compound,IC50,"viability, T/C (compound alone 1 µM)","viability, T/C (compound alone 3.16 µM)","viability, T/C (compound alone 10 µM)","viability, T/C (compound alone 0.316 µM)","viability, T/C (compound alone 0.0316 µM)","viability, T/C (compound alone 0.1 µM)"
COc1cc(OC)cc(N(CCNC(C)C)c2ccc3ncc(-c4cnn(C)c4)nc3c2)c1,"6.12 µM, 6.52 µM, 6.44 µM, 630 nM, 6.98 µM","78, 88, 110, 10.5, 108%","72.6, 76.5, 67.4, 35.1, 76.3%","35.3, 35.6, 39.2, 0.19, 38.1%",,,
COc1cc2nccc(Oc3ccc(NC(=O)C4(C(=O)Nc5ccc(F)cc5)CC4)cc3)c2cc1OC,,,"106, 104, 100, 53.3, 101%","70.1, 67.5, 57, 92, 56.5%",,,
CCNC(=O)CC1N=C(c2ccc(Cl)cc2)c2cc(OC)ccc2-n2c(C)nnc21 (centres undefined),,,"83.6, 84.4, 98.7, 66.8, 92.6%","67.6, 74.7, 73.2, 29.8, 76%",,,
C=CC(=O)N1CCN(c2nc(OCC3CCCN3C)nc3c2CCN(c2cccc4cccc(C)c24)C3)CC1CC#N (centres undefined),,"95, 103, 90.5, 87.9, 95.7, 96, 101, 102, 94.6, 92.4, 89.5, 61.2, 66, 72.6, 68, 70.9, 73.1%","100, 69.1, 63.5, 71.3, 64, 64.3, 66.5, 54.4, 51.4, 68, 60.6, 59.7, 60.7, 68.4, 55, 62% (2×)",,"97.6, 89.8, 109 (2×), 90.6, 97.4, 102, 100, 83.7, 98.5, 103 (2×), 82.6, 90.5, 94.7, 97.3, 86%",,
CC1COCCN1c1cc(-c2ccnn2C)c2ccnc(-c3ccn[nH]3)c2n1 (centres undefined),"286, 364, 405, 104, 285 nM",,,,,"90.5, 95.1, 100, 55.1, 91%","65.2, 67.1, 72.1, 40.4, 63.8%"
CCN1CCN(Cc2ccc(Nc3ncc(F)c(-c4cc(F)c5nc(C)n(C(C)C)c5c4)n3)nc2)CC1,"707 nM, 646 nM, > 1 µM, 771 nM, 703 nM",,,,,,
CNCc1ccccc1-c1csc(C(C)Nc2nc(C)nc3cc(OC)c(OC)cc23)c1 (centres undefined),,"81.4, 84, 97.9, 94.8, 99.4, 100, 110, 105, 96.3, 91.2, 95.1, 88.4, 92.1, 99.5, 102, 90.2, 93.8%","88.7, 94.5, 76.8, 68.7, 76, 70.6, 84.1, 69.3, 79.3, 73.6, 67.8, 35.6, 48, 30.9, 42.4, 32.8, 36.7%",,,,
COc1cc2nc(C)nc(NC(C)c3cc(N)cc(C(F)(F)F)c3)c2cc1OC1CCOC1 (centres undefined),,,"93.5, 87.4, 87.3, 101, 91.2, 89.6, 92.4, 85.8, 88.2, 89.8, 84.5, 54.1, 71.3, 76.5, 65.8, 81.7, 82.6%","83.5, 82.7, 100, 73.7, 81.4, 79.1 (2×), 68.1, 82.8, 80.6, 71.9, 78.8, 84.9, 88.3, 96.3, 79.7, 73.1%","87.7, 94, 92.5, 88.5, 107, 94.8, 104, 98.2, 82.4, 91.1, 96.8, 96.3, 102, 81, 112, 99.3, 97.8%",,"105 (2×), 108 (2×), 97.7, 92.6, 106, 104 (2×), 113, 95.5, 94.7, 91.1, 89.3, 82, 64.3, 85.3%"
CC(C)NCC(C(=O)N1CCN(c2ncnc3c2C(C)CC3O)CC1)c1ccc(Cl)cc1 (centres undefined),,,"110, 104, 95.7, 42.6, 106%",,,,
CC1OCC2(CCN(c3cnc(Sc4ccnc(N)c4Cl)c(N)n3)CC2)C1N (centres undefined),,,"63, 71.1, 71.7, 66.6, 63.3, 72.2, 79.8, 73.5, 68.6, 71.2, 68.9, 76.8, 77.7, 80, 47, 68.3, 52.8, 67.2, 66.4, 76.6%","64.1, 72.9, 70.5, 65.3 (2×), 71, 73.6, 69.1, 58.1, 63.6, 62.8, 58.4, 67.9, 69.4, 73.2, 65, 35.2, 72.1, 76.1, 76.8%","80.8, 97.4 (2×), 94.9 (2×), 95.9, 103, 107, 90.6, 96.7, 91.9, 73.8, 95.4, 91.3, 86.7, 104, 88.7, 96.4, 95.3%",,
C=CC(=O)N1CCN(c2nc(=O)n(-c3c(C)ccnc3C(C)C)c3nc(-c4c(O)cccc4F)c(F)cc23)C(C)C1 (centres undefined),,"94.5, 111, 105, 85.8, 99.4, 106 (2×), 103, 100, 95.2 (2×), 95.7, 101, 82.7, 115, 83.4, 88.1%","96.8, 114, 102 (2×), 91.9, 103 (2×), 108, 106, 112, 98.6, 94.6, 89.2, 104, 72.6, 74.1, 67.3%","93.3, 97.4, 104, 91.3, 110, 109 (2×), 115, 108, 105 (2×), 100, 93.2, 92.7, 99.2, 80, 71.5%","101 (2×), 103, 91.9, 94.9, 76.8, 109, 107, 108 (2×), 94.5, 86.7, 114, 98.9, 104, 97.2, 91.8%",,
